Measurements from PubChem BioAssay AID588342 (National Center for Advancing Translational Sciences (NCATS), 2011).
Hit rate of the full screen: of about 360,000 compounds, about 25,000 (6.9%) were called active. Inconclusive results, whose numbers are uncertain, are shown with a selection of clear calls. Calls follow the shape of the dose curve; as a rule, active = well fitted inhibition curve with a large enough effect; inconclusive = small, poorly fitted or top-dose-only effect; inactive = flat fitted curve, though single readings scatter. A potency beside an inconclusive call is a rough fit, not a confirmed value.

biological target: Luciferin 4-monooxygenase (Photinus pyralis) (UniProt P08659); experiment: qHTS profiling assay for firefly luciferase inhibitor/activator using purifed enzyme and Km concentrations of substrates (counterscreen for miR-21 project); conditions: purified FLuc, luminescence inhibition; series mostly up to 57.5 µM; also: nearly all actives have a fitted effect of over 55% in size
Summary of the method: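 Purified P. pyralis luciferase (10nM final) with 10uM D-luciferin and 10uM ATP (Km levels) in 50mM Tris acetate pH 7.5, 10mM Mg acetate, 0.01% Tween-20, 0.05% BSA; qHTS 6-point titration, ~60 µM downward; luminescence read.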
Potency is read from the fitted curve at half-maximal effect; tags tell the direction and shape of the fitted curve.

Sequence of UniProt P08659 (P08659 whole entry, looked up): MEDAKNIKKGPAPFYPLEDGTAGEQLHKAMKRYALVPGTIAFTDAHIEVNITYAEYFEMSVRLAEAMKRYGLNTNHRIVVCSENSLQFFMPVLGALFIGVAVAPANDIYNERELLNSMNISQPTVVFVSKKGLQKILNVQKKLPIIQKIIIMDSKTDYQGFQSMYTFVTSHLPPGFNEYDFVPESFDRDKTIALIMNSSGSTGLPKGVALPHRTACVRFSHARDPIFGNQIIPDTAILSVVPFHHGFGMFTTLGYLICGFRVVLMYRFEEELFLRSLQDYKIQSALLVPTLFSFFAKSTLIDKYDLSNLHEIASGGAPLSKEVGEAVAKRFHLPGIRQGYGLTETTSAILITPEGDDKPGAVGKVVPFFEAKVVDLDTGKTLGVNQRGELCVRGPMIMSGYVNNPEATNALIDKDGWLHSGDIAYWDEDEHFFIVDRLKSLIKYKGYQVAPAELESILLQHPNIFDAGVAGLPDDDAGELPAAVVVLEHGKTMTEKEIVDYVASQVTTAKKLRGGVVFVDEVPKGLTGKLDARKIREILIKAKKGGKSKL

| Compound | Potency |
| --- | --- |
| Cc1ccc(/C=N/c2sc3c(c2C(N)=O)CCCC3)o1 | active: 10.7 µM |
| CCCN1Cc2cccc(C(=O)Nc3ccc(CC)cc3)c2C1=O | active: 2.69 µM |
| COc1ccc(N=c2scc(-c3ccc(OC)cc3)n2CCO)cc1 | inconclusive: 23.9 µM [inhibitor, single point] |
| Cc1nn(C)c(C(=O)NNC(=O)NC2CCCCC2)c1Cl | inactive |
| Cc1cc(N)ccc1N=Nc1c(C)n(C)n(-c2ccccc2)c1=O | inconclusive: 16.9 µM [inhibitor, partial curve] |
| CCC(C)[C@H](NC(=O)c1cc2cc(Cl)ccc2n1C)C(=O)N1CCC(C(=O)O)CC1 (stereo not given in full) | inactive |
| O=C(N/N=C/c1ccccn1)c1sc2ccccc2c1Cl | active: 9.53 µM |
| Cc1ccc(CS(=O)(=O)c2ncc(Cl)c(C(=O)Nc3nc4ccc(F)cc4s3)n2)cc1 | inconclusive: 6.75 µM [inhibitor, partial curve, poor fit] |
| Nc1ncnc(NCc2ccc(F)cc2)c1[N+](=O)[O-] | inactive |
| CN(C)c1ccc(P(=O)(Nc2ccccc2)N2CCOCC2)c(NC(=O)c2cccs2)c1 (stereo not given) | inconclusive: 8.49 µM [inhibitor, partial curve] |
| CCCCN(C)C(=O)C1CCC(CNS(=O)(=O)c2ccc(Cl)cc2)CC1 (stereo not given) | inconclusive: 30.1 µM [inhibitor, partial curve, poor fit] |
| CC(C)Oc1ccc(C(=O)NNC(=O)c2ccccc2C(=O)O)cc1 | active: 21.3 µM |
| Cc1cccc(N=Nc2c(O)[nH]c3ccc(F)cc23)c1 | inconclusive: 7.57 µM [inhibitor, partial curve, poor fit] |
| Cc1cccc(C(=O)NC(CC(=O)O)c2ccc(OC3CCCC3)cc2)c1[N+](=O)[O-] (stereo not given) | inconclusive: 26.9 µM [inhibitor, single point] |
| CC(=O)NCCc1nc2cc(NC(=O)c3ccccc3Cl)ccc2n1C | inconclusive: 26.9 µM [inhibitor, single point] |
| CCOC(=O)c1c2c(c(=S)n(-c3ccccc3)c1N)CCC2 | inconclusive: 30.1 µM [inhibitor, partial curve, poor fit] |
| Clc1ccc(CSc2nnc3ccccn23)c(Cl)c1 | inconclusive: 23.9 µM [inhibitor, partial curve] |
| CC(=O)Nc1ccc(NC(=O)CCCSc2nc3ccccc3s2)cc1 | inconclusive: 33.8 µM [inhibitor, single point] |
| CCN(CC)c1ccc(/C=C2\C(=O)N(c3nnc(C)c(=O)[nH]3)N=C2C)cc1 | inconclusive: 10.7 µM [inhibitor, partial curve, poor fit] |
| COc1ccc(NC2CCCN(C(=O)c3cccs3)C2)cc1 (stereo not given) | inconclusive: 37.9 µM [inhibitor, partial curve, poor fit] |
| Cc1cc(C)c2[nH]c3nc(SCC(=O)O)nnc3c2c1 | inconclusive: 19 µM [inhibitor, partial curve, poor fit] |
| COc1ccc(OC)c(NC(=O)c2nc3ccccc3s2)c1 | inactive |
| Cc1nn(C)c(C)c1CN(C(=O)C1CCC(=O)N(C2CCCCCC2)C1)C(C)C (stereo not given) | inactive |
| CCCC(=O)Nc1ccc(C(=O)NCc2ccccc2Cl)cc1 | inactive |
| CC(=O)c1cccc(OCC(=O)Nc2cc(Cl)ccc2-n2cncn2)c1 | inconclusive: 7.57 µM [inhibitor, partial curve, poor fit] |

| Compound | Potency |
| --- | --- |
| CSC1=NCCN1C(=O)c1ccc(Br)o1 | inconclusive: 26.9 µM [inhibitor, partial curve, poor fit] |
| COCCNc1nc2c(S(=O)(=O)c3ccc(C)c(C)c3)nnn2c2ccc(Cl)cc12 | inactive |
| CCc1noc(-c2ccc(N3CCCCC3C)c([N+](=O)[O-])c2)n1 (stereo not given) | inconclusive: 21.3 µM [inhibitor, single point] |
| CCOc1c(Nc2ccc(C(C)C)cc2)c(=O)c1=O | active: 13.5 µM |
| Cc1ccc(N=CC2=C(O)CC(C)(C)CC2=O)nc1 | active: 23.9 µM |
| O=C1OC2(c3ccccc31)c1cc(I)c(O)c(I)c1Oc1c2cc(I)c(O)c1I | inconclusive: 37.9 µM [inhibitor, single point] |
| CC(=O)Nc1ccccc1/C=C/c1ccc2c(C)ccc(O)c2n1 | inconclusive: 5.36 µM [inhibitor, partial curve] |
| Cc1cccc(C(=O)Nc2nnc(S(=O)(=O)N(C)Cc3ccco3)s2)c1 | inconclusive: 30.1 µM [inhibitor, single point] |
| COc1cc(SC)ccc1C(=O)Nc1ncc(C)s1 | active: 0.135 µM |
| O=C(Cn1nc(C(F)F)cc1C(F)F)NNC(=S)Nc1ccc([N+](=O)[O-])cc1 | inconclusive: 37.9 µM [inhibitor, single point] |
| Cc1ccc(NS(=O)(=O)c2ccc3c(c2)CCCN3C(=O)C2CCC2)cc1Cl | inconclusive: 21.3 µM [inhibitor, partial curve, poor fit] |
| Nc1c(C(=O)Nc2ccc(C(=O)O)cc2)sc2nc3c(cc12)CCCC3 | active: 0.19 µM |
| N#Cc1cc([N+](=O)[O-])ccc1NC(=O)COC(=O)C1CC2CCCC(C1)C2=O (stereo not given) | inactive |
| CCn1c(CN2CCOCC2)nnc1SCC(=O)Nc1cccc(C)c1 | inactive |
| COc1ccc(Nc2nnc(SCC(=O)Nc3ccc4[nH]c(=O)[nH]c4c3)s2)cc1 | active: 2.39 µM |
| COc1cccc(NC(=O)CN2CCc3ccccc3C2)c1 | inconclusive: 37.9 µM [inhibitor, partial curve, poor fit] |
| N/C(=N\OC(=O)CCC1CCCC1)c1ccc(Br)cc1 | inconclusive: 30.1 µM [inhibitor, partial curve, poor fit] |
| CC(=O)c1ccc(NC(=S)N2CCN(S(=O)(=O)c3ccc(F)cc3)CC2)cc1 | inactive |
| O=Cc1cn(-c2ccccc2)nc1-c1cccnc1 | inconclusive: 19 µM [inhibitor, single point] |
| Cn1c(NCc2ccc(Cl)cc2)nc2ccccc21 | active: 9.53 µM |
| C/C(=N\NC(=O)c1cc(C)nc2ccccc12)c1cccs1 | inactive |
| CC(=O)C1=NN(c2ccccc2)C(c2cccs2)N1c1ccc(N(C)C)cc1 (stereo not given) | inactive |
| Cc1c(C)n(C)c2ccc(C(=O)NCCCN3CCN(c4ccc(F)cc4)CC3)cc12 | inactive |
| Cc1ccc(N(C(=O)CNC(=O)c2ccco2)C(C(=O)NC2CCCC2)c2cccnc2)c(C)c1 (stereo not given) | inactive |
| COc1cc(NC(=O)c2cnc(N)s2)cc(C(=O)Nc2cccc(C(F)(F)F)c2)c1 | active: 12 µM |

| Compound | Potency |
| --- | --- |
| C/C(=N\NC(=O)c1cc(C)oc1C)c1ccc2c(c1)OCO2 | inconclusive: 19 µM [inhibitor, partial curve] |
| CCc1ccc2c(CN3CCC(C(=O)OC)CC3)cc(=O)oc2c1 | inconclusive: 21.3 µM [inhibitor, partial curve, poor fit] |
| COc1ccc(N(CC(=O)Nc2ccc3c(c2)OCO3)S(=O)(=O)c2ccccc2)c(OC)c1 | inactive |
| CC(=O)N1CCCc2cc(S(=O)(=O)N3CCCC(C(=O)Nc4cc(Cl)ccc4C)C3)ccc21 (stereo not given) | inactive |
| COc1cccc(OC)c1C(=O)Nc1nnc(C(C)C)s1 | inactive |
| CC1=C(C(=O)Nc2cccnc2)C(c2ccccc2)n2nc(-c3ccc(O)cc3)nc2N1 (stereo not given) | inactive |
| CC1CCC(NC(=O)CCNC(=O)c2ccc(Br)cc2)CC1 (stereo not given) | inconclusive: 15.1 µM [inhibitor, partial curve] |
| O=C1CCC(O)CCN1CCSc1ccccc1 (stereo not given) | inconclusive: 26.9 µM [inhibitor, partial curve, poor fit] |
| CCOC(=O)COc1ccccc1C1Nc2ccccc2C(=O)N1c1cccc(Cl)c1 (stereo not given) | inactive |
| O=C(N/N=C/C=C/c1ccccc1[N+](=O)[O-])c1cc(-c2ccccc2)n[nH]1 | inconclusive: 26.9 µM [inhibitor, partial curve, poor fit] |
| COC(=O)c1c(NC(=O)CN2CCCc3ccccc32)sc(C)c1C | inactive |
| O=c1c(N2CCc3ccccc3C2)csc2ccccc12 | active: 9.53 µM |
| CCn1nccc1C(=O)Nc1ccc(Cl)cn1 | inconclusive: 23.9 µM [inhibitor, partial curve] |
| COc1ccc(CCNC(=O)C2CCCN(c3nc4c(C)cc(C)cc4s3)C2)cc1OC (stereo not given) | inconclusive: 3.79 µM [inhibitor, full curve] |
| Cc1c(C(=O)NCc2cccs2)oc2ccc(Br)cc12 | active: 19 µM |
| COc1ccccc1OCc1cc(C(=O)NCCN2CCCC(O)C2)no1 (stereo not given) | inactive |
| O=C(CSc1nnc(CNC(=O)c2cccs2)o1)Nc1ccc2c(c1)OCO2 | inactive |
| CCOC(=O)c1c(NC(=O)c2ccoc2C)sc(C)c1C | inactive |
| O=C(Nc1ccc(OC(F)F)c(Cl)c1)Nc1ccc2c(c1)OCO2 | inconclusive: 7.57 µM [inhibitor, full curve] |
| CCCCN1C(=O)/C(=C/C=C2/CC(C)(C)CN2C)SC1=S | active: 9.53 µM |
| COCCNC(=O)Cc1c(C)c2c(cc(C)c3c(C(C)(C)C)coc32)oc1=O | active: 2.69 µM |
| O=C(Nc1ccccc1C(=O)O)c1ccc2c(c1)C(=O)N(c1cccc([N+](=O)[O-])c1)C2=O | active: 26.9 µM |
| Cc1cccc(CSc2nc3c(c(=O)[nH]2)C(c2cccc(O)c2)CC(=O)N3)c1 (stereo not given) | inconclusive: 16.9 µM [inhibitor, partial curve, poor fit] |
| O=C(O)CCC(=O)Nc1ccc(-c2nnc(-c3ccco3)o2)cc1 | inconclusive: 21.3 µM [inhibitor, single point] |
| COc1ccccc1C(=O)Nc1ccc(S(=O)(=O)Nc2cnc3ccccc3n2)cc1 | inactive |
